In all, about 220,000 compounds went through this assay and about 2,300 (1%) were called active. Roughly 6% stayed inconclusive and do not appear here. Calls come from the whole dose curve; as a rule, active = well fitted inhibition curve with a large enough effect; inconclusive = small, poorly fitted or top-dose-only effect, or effect the other way; inactive = no such curve, though single readings can be large or run the other way. This is a selection; strong and weak results do not stand in their true shares. Some compounds were tested as several samples or in several runs, with calls that do not always agree.
Target: Neuropeptide S receptor (Homo sapiens) (UniProt Q6W5P4)
Experiment: qHTS Assay for Antagonists of the Neuropeptide S Receptor: cAMP Signal Transduction; note: nearly all actives have a fitted effect of over 50% in size
Details: CHO-NPSR cells, cAMP TR-FRET, antagonist mode; series mostly up to 38.3 µM; activity change, negative = inhibition: at the top concentration
From the text: NIH Chemical Genomics Center [NCGC] NIH Molecular Libraries Probe Production centers Network [MLPCN] MLPCN Grant: X01-DA026210-01 Assay Submitter (PI): Heilig, Markus Alexander NCGC Assay Overview: Neuropeptide S receptor (NPSR), previously known as GPR154, is a recently de-orphanized G protein coupled receptor. Its endogenous ligand is the 20 amino acids peptide Neuropeptide S (NPS). […] NPS and its receptor are found in various tissues. Specifically they are highly expressed in brain areas that have been implicated in modulation of arousal, stress and anxiety. Central administration of NPS in mice produces an unusual profile of activity by inducing wakefulness and arousal, while at the same time suppressing anxiety. Therefore, NPSR may represent a novel drug target for the treatment of sleep and anxiety disorders. To identify NPSR antagonists, we developed a cell-based cAMP assay. NPS can stimulate the production of cAMP in Chinese hamster ovary cells stably expressing NPS receptor. This change in intracellular cAMP level can be detected by a homogeneous LANCE cAMP assay based on the TR-FRET (time resolved fluorescence resonance energy transfer) between a europium-labeled cAMP tracer complex and a cAMP-specific antibody labeled with Alexa Fluor 647. The europium-labeled cAMP tracer complex is formed by the tight interaction between Biotin-cAMP (b-cAMP) and streptavidin labeled with Europium-W8044 chelate (Eu-SA). Light pulse at 320 nm excites the europium of the cAMP tracer and the energy emitted is transferred to the Alexa molecule bound to the cAMP antibody, generating a TR-FRET signal at 665 nm. Residual energy from the europium will produce a light at 620 nm. The native unlabeled cAMP from cell lysates competes with the europium-cAMP tracer for antibody binding and reversely reduces the emission signal of Alexa by interrupting FRET between the two labeled molecules. Both emission signals from the FRET donor (620 nm) and the acceptor (665 nm) can be detected by a plate reader in the TRF mode. Expression of result in fluorescence ratio (665 nm/620 nm) helps to normalize differences due to cell density and reagent dispensing. This assay was successfully optimized to a 1536-well plate format.
NCGC Assay Protocol Summary: A Chinese hamster ovary (CHO) cell line stably expressing the NPS receptor (CHO-NPSR) was obtained from Dr. Heilig lab at NIAAA and maintained in F-12 Kaighn's media (Invitrogen, Carlsbad, CA, 21127) supplemented with 10 % FBS, 100 units/ml penicillin, 100 ug/ml streptomycin and 250 ug/ml geneticin at 37C, 5% CO2 in a humidified atmosphere. Before the assay, aliquots of cells were frozen and stored at -135C. The assay was performed in 1536-well format. Data are reported for both the ratio of the two emission wavelengths, and also for the component 'donor' channel, Em2=620. Data were normalized to the controls for basal activity (DMSO only) and 100% inhibition (No NPS control). IC50 values were determined from concentration-response data modeled with the standard Hill equation. NPS 1536-well assay protocol: (1) Fresh or frozen CHO-NPSR cells were suspended in F-12 Kaighn's media supplemented with 10 % FBS, 100 units/ml penicillin and 100 ug/ml streptomycin. Cells were plated at 4 ul/well (1200 cells) to white, tissue culture treated 1536-well plates, and then cultured at 37C, 5 % CO2 for 16 to 30 hours. (2) Add 23 nl/well of compound in DMSO solution. The final titration for each compound was between 0.6 nM and 46 uM. (3) Add 1 ul of stimulation reagent (1X HBSS buffer, 5 mM HEPES, 0.1% BSA, 500 uM RO-201724 (Sigma-Aldrich, B8279), 1.5% Alexa 647-labeled anti-cAMP antibody (from Perkin Elmer), 100 nM NPS) (4) Incubation at 37C, 5 % CO2 for 60 min. (5) Add 1 ul/well detection reagent. Detection reagent was prepared by adding biotin labeled cAMP (4%), streptavidin labeled with Europium-W8044 chelate (1.33%) and TritonX-100 (1%) to detection buffer. […]
% is set by controls: 0 for no effect and ±100 for the full control effect; potency is the fitted concentration of half-maximal effect.

Sequence of UniProt Q6W5P4 (Q6W5P4 whole entry, looked up): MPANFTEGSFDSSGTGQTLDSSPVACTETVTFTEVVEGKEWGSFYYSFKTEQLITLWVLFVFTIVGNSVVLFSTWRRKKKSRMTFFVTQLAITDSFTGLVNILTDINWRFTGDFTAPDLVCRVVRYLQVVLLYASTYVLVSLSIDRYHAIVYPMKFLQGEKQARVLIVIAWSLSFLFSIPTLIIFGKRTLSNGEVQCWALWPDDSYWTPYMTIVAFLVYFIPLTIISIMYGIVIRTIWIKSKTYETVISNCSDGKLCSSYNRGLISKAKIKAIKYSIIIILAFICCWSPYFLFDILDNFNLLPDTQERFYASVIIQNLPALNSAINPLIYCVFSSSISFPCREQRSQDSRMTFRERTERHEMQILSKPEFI

**Q.** `CCO[C@@H]1OC(C(=O)N2CCN(Cc3ccccc3)CC2)=C[C@H](c2cn(C(C)=O)c3ccccc23)[C@H]1CCCO` was tested. Which “activity change, negative = inhibition” value did it give?
**A.** inactive: 40.9%

**Q.** Which “activity change, negative = inhibition” value does the source give for `CCO[C@@H]1OC(C(=O)N2CCN(Cc3ccc4c(c3)OCO4)CC2)=C[C@H](c2cn(C(C)=O)c3ccccc23)[C@H]1CCCO` here?
**A.** inactive: 46%

**Q.** Which “activity change, negative = inhibition” value does the source give for `CCCNC(=O)NS(=O)(=O)c1ccc(Cl)cc1` here?
**A.** inactive: 5.58%

**Q.** For `O=C(c1ccc(F)cc1)C1CCN(CCn2c(=O)[nH]c3ccccc3c2=O)CC1`, which “activity change, negative = inhibition” value is on record?
**A.** inactive: -11.4%

**Q.** How did the “activity change, negative = inhibition” value turn out when `O=C(C1=C[C@@H](c2ccc(Br)cc2)C[C@@H](OCCCCO)O1)N1CCN(Cc2ccccc2)CC1` was run?
**A.** inactive: 45.6%

**Q.** For `CCN(CC)c1ccc(/C=C2/SC(=O)N(C(C)C)C2=O)o1`, which “activity change, negative = inhibition” value is on record?
**A.** inactive: -43.2%

**Q.** With `CC(C(O)c1ccc(O)cc1)N1CCC(Cc2ccccc2)CC1` (configuration not stated) as the compound, how does the Potency read?
**A.** inactive

**Q.** For `Cc1cc(C)c2c3c(sc2n1)C(c1ccccc1)C(C#N)=C(N)O3` (configuration not stated), which Potency is on record?
**A.** active: 10 µM

**Q.** With `CN1CCN(C(=O)C2=C[C@@H](c3coc4ccccc4c3=O)C[C@@H](OCc3ccc(CO)cc3)O2)CC1` as the compound, how does the “activity change, negative = inhibition” value read?
**A.** inactive: 6.18%

**Q.** How did the “activity change, negative = inhibition” value turn out when `Cc1ccsc1/C=C1/SC(N2CCOCC2)=NC1=O` was run?
**A.** inactive: -15.5%

**Q.** With `COc1ccc(/C=C2\N=C(c3ccccc3)N(c3ccc(C(=O)O)cc3)C2=O)cc1OC` as the compound, how does the Potency read?
**A.** active: 12.6 µM

**Q.** For `COc1ccc(CN2C(=O)/C(=C/c3ccc(-c4ccc(Cl)c(C(=O)O)c4)o3)SC2=S)cc1`, which Potency is on record?
**A.** active: 6.31 µM

**Q.** For `CN(C1=C(N2CCCCC2)C(=O)c2ccccc2C1=O)c1ccccc1`, which Potency is on record?
**A.** active: 12.6 µM

**Q.** How did the Potency turn out when `CN(C)CCC(c1ccc(Cl)cc1)c1ccccn1` (configuration not stated) was run?
**A.** inactive

**Q.** For `O=C(NCC1CCCCN1)c1cc(OCC(F)(F)F)ccc1OCC(F)(F)F` (configuration not stated), which “activity change, negative = inhibition” value is on record?
**A.** inactive: -1.48%

**Q.** Which “activity change, negative = inhibition” value does the source give for `O=C1/C(=C\c2cccs2)N=C(c2cccs2)N1Nc1ccccc1` here?
**A.** inactive: -3.08% [at 46.1 µM]

**Q.** How did the “activity change, negative = inhibition” value turn out when `O=C(O)c1cc(-c2ccco2)nc2ccc(Br)cc12` was run?
**A.** inactive: 4.87% [at 46.1 µM]

**Q.** How did the “activity change, negative = inhibition” value turn out when `COc1ccc(C2Nc3ccccc3C(=O)N2Cc2ccco2)cc1CN1C(=O)c2ccccc2C1=O` (configuration not stated) was run?
**A.** inactive: -33.7%

**Q.** How did the “activity change, negative = inhibition” value turn out when `C#Cc1ccc([C@@H]2C=C(C(=O)NCc3ccccc3)O[C@H](OCC)[C@H]2CCCO)cc1` was run?
**A.** inactive: 1.77%

**Q.** For `O=C1S/C(=C/c2ccc(N3CCOCC3)o2)C(=O)N1Cc1ccc(F)cc1`, which “activity change, negative = inhibition” value is on record?
**A.** inactive: -18.3% [at 46.1 µM]

**Q.** `CO/N=C(\C(=O)N[C@@H]1C(=O)N2C(C(=O)O)=C(COC(C)=O)CS[C@H]12)c1csc(N)n1` (stereo in doubt) was tested. Which “activity change, negative = inhibition” value did it give?
**A.** inactive: 42.1%

**Q.** `C=CCOC(=O)C1=C[C@@H](c2ccc(C(F)(F)F)cc2)[C@H](CCCO)[C@@H](OCC)O1` was tested. Which “activity change, negative = inhibition” value did it give?
**A.** inactive: 42.2%

**Q.** `CCN1/C(=C/C(C)=O)Sc2ccc(OC)cc21` was tested. Which “activity change, negative = inhibition” value did it give?
**A.** inactive: -22.4% [at 46.1 µM]

**Q.** Which “activity change, negative = inhibition” value does the source give for `CC[C@]1(O)C[C@@H]2CN(CCc3c([nH]c4ccccc34)[C@@](C(=O)OC)(c3cc4c(cc3OC)N(C)[C@H]3[C@@](O)(C(=O)OC)[C@H](OC(C)=O)[C@]5(CC)C=CCN6CC[C@]43[C@@H]65)C2)C1` here?
**A.** inactive: 21.5%

**Q.** Which Potency does the source give for `CCOC(=O)N=Nc1c2ccccc2c2nc3no[nH]c3nc12` here?
**A.** active: 6.31 µM

**Q.** How did the “activity change, negative = inhibition” value turn out when `CCO[C@H]1OC(C(=O)Nc2ccccc2)=C[C@@H](c2coc3ccccc3c2=O)[C@@H]1CCCO` was run?
**A.** inactive: 40.7%

**Q.** How did the “activity change, negative = inhibition” value turn out when `O=C(C1=C[C@H](c2ccccc2)C[C@H](OCc2ccc(CO)cc2)O1)N1CCCCCCC1` was run?
**A.** inactive: 32.7%

**Q.** With `COCCOC(=O)C1=C(C)NC(C)=C(C(=O)OC(C)C)C1c1cccc([N+](=O)[O-])c1` (configuration not stated) as the compound, how does the Potency read?
**A.** inactive

**Q.** `CN=C1S/C(=C\c2cn(CC(=O)OC)c3ccccc23)C(=O)N1C` was tested. Which “activity change, negative = inhibition” value did it give?
**A.** inactive: -23.8%

**Q.** With `CC(C)C[C@H](NC(=O)[C@H](O)[C@H](N)Cc1ccccc1)C(=O)O` as the compound, how does the “activity change, negative = inhibition” value read?
**A.** inactive: -0.944% [at 46.1 µM]

**Q.** With `C(=C\c1ccccc1)/CN1CCN(C(c2ccccc2)c2ccccc2)CC1` as the compound, how does the “activity change, negative = inhibition” value read?
**A.** inactive: 24.7% [at 46.1 µM]

**Q.** How did the “activity change, negative = inhibition” value turn out when `O=C(C1CCCCC1)N1CC(=O)N2CCc3ccccc3C2C1` (configuration not stated) was run?
**A.** inactive: -12.4%

**Q.** For `O=C(/C=C\c1ccccc1)Oc1cccc2cccnc12`, which “activity change, negative = inhibition” value is on record?
**A.** inactive: -37.1%

**Q.** Which “activity change, negative = inhibition” value does the source give for `COc1ccc2c(c1)c(CC(=O)O)c(C)n2C(=O)c1ccc(Cl)cc1` here?
**A.** inactive: -38.7%

**Q.** Which “activity change, negative = inhibition” value does the source give for `NC1=NC[C@H](Cc2ccc(O)cc2)N1CCCCC1CCCCC1` here?
**A.** inactive: -50.3%

**Q.** `CNC[C@H](O)c1ccc(O)c(O)c1` was tested. Which Potency did it give?
**A.** inactive

**Q.** Which Potency does the source give for `COc1ccc(/C=C/C(=O)Nc2ccccc2C(=O)O)cc1OC` here?
**A.** inactive

**Q.** Which “activity change, negative = inhibition” value does the source give for `CCCc1c(-c2ccc(O)cc2)nn(-c2ccc(O)cc2)c1-c1ccc(O)cc1` here?
**A.** inactive: -44.3%

**Q.** Which “activity change, negative = inhibition” value does the source give for `O=C(C1=C[C@@H](c2coc3ccccc3c2=O)C[C@@H](OCc2ccc(CO)cc2)O1)N1CCN(Cc2ccccc2)CC1` here?
**A.** inactive: 50.7%

**Q.** `Cc1ccccc1/C=C\c1nc2ccccc2c(=O)[nH]1` was tested. Which “activity change, negative = inhibition” value did it give?
**A.** inactive: -50.3%

**Q.** `NCCCC(=O)O` was tested. Which “activity change, negative = inhibition” value did it give?
**A.** inactive: 19.9%

**Q.** With `Cn1c(=O)c2[nH]c(-c3ccccc3)nc2n(C)c1=O` as the compound, how does the “activity change, negative = inhibition” value read?
**A.** inactive: 1.49%

**Q.** For `NC/C=C/C(=O)O`, which “activity change, negative = inhibition” value is on record?
**A.** inactive: 1.97% [at 46.1 µM]

**Q.** With `COc1ccc(NC(=O)/C(Cl)=C(/Cl)S(=O)Cc2ccccc2)cn1` (configuration not stated) as the compound, how does the Potency read?
**A.** active: 1.26 µM

**Q.** `CCO/C([O-])=N/c1c[n+](N2CCOCC2)no1` was tested. Which “activity change, negative = inhibition” value did it give?
**A.** inactive: 2.12%

**Q.** Which “activity change, negative = inhibition” value does the source give for `COc1ccc(C2C(C#N)C(C#N)N3CCCN23)cc1` (configuration not stated) here?
**A.** inactive: -12.8% [at 46.1 µM]

**Q.** With `Clc1ccc(Cn2c(CN3CCCC3)nc3ccccc32)cc1` as the compound, how does the “activity change, negative = inhibition” value read?
**A.** inactive: -44.6%

— PubChem BioAssay AID1461 (National Center for Advancing Translational Sciences (NCATS), 2008)
